Drawing on the RNAGym collection of RNA variant scans (doi:10.7554/elife.90254), this text covers self-cleavage for 56 variants.

First the molecules themselves.
B1: LINE1-mini (parent)
chain: GGCAGAGCUCAACACAGCGUGGCAAAGUGGCUGUGGCUAGACUGCC

Read counts are not given, so values of variants with three or more changes are uncertain.

The data set covers variants of B1. The experiment in a line: self-cleavage, relative activity (ratio to wild type); higher = more cleavage; in vitro, sequencing; the parent is a self-cleaving ribozyme.
As for GGGAGAGCUCAACACAGCGUGGCAAAGUGGCGGUGGCUAGAGUGCC [C3G U32G C42G], the self-cleavage came to 0.15.

GGCAGAGCUCAACACUGCGUGGCAAAGUGGCUAUGGCUCGACUGCC [A16U G33A A39C]: the self-cleavage is 0.

GGCAGAGCUCAACACCGCCUGGCAAAGUGGUUUUGGCUUGAUUGCC [A16C G19C C31U G33U A39U C42U]: the self-cleavage was 0.

In the case of GGCAGAGCUCAACUCCGGGUGUCAAAGUGGCUGUGGCUAGACUGCA [A14U A16C C18G G22U C46A], the self-cleavage worked out at 0.08.

As to GUCAGAGCUCAACACAGCGUGGCAGAGUGGCUGUGGCUAGACUCCC [G2U A25G G44C], the self-cleavage came out at 0.08.

As for GGCAGAGUUCAACACAGAGUGGCAAAGUGCCUGUGGCUAGACUGCC [C8U C18A G30C], the self-cleavage was found to be 0.56.

As for GGCAGAGAUCAAAAAAGCUUGGCAAACUGGCUGUGGCUAGGCUGCC [C8A C13A C15A G19U G27C A41G], the self-cleavage was determined as 0.02.

As to GGCAGAGCUCAACACAUCGUGGCAAAGUGGAUGUGGCUAUCCUGCC [G17U C31A G40U A41C], the self-cleavage came to 0.13.

Consider GUCAGAGCUCAUCACAGCGUCGCAAAGAGGCUGUGGCUAGACUGCC [G2U A12U G21C U28A], for which the self-cleavage is 0.04.

For the variant GGCAACGAUCAACACAGCGUGGCAAAGUGGCUGUGGCUAAACUGCC [G5A A6C C8A G40A], the self-cleavage came out at 0.15.

In the case of GGCCGAACUCAACACAGCGUGGCAAAGUGGCUGUGGCUAGACUUCC [A4C G7A G44U], the self-cleavage is 0.32.

GGCAGAGCUCAACACCGCGUGGCAAAGUGGCUGUGGCUAGACUAUC [A16C G44A C45U]: the self-cleavage was 0.03.

As for GGCAGAGCUCAACUCAGGGUGGCAAGGUGGCUGUGGCUAGACUGCC [A14U C18G A26G], the self-cleavage was determined as 0.14.

In the case of GGCAGAGCUCUACACAUCGUGGCAAAGUUGCCGUGGCUAGACUGCC [A11U G17U G29U U32C], the self-cleavage came to 0.04.

For GGCCGAGCUCCACACAGCGUGGCAAAGUGGCUGUGGCUAGACGGCC [A4C A11C U43G], the self-cleavage amounted to 0.03.

GGCAGAGCUAAACACAGCGUGGCAAAGUUGCUGUGGCUAGACUGUC [C10A G29U C45U]: the self-cleavage worked out at 0.02.

As to CGCAGGACUCAACACAGCGUGGCAAAGUGGCUGUGGCUAGACUGCC [G1C A6G G7A], the self-cleavage turned out to be 0.

On to GGCAGUUCUCAAAACAGCGUGGCGAAGUGGCUGUGGCUAGACUGCC [A6U G7U C13A A24G], for which the self-cleavage worked out at 0.17.

Regarding GGCAGAGCUCAUCACAGCGUGGCAAACUGGCUGUCGCUAGCCUGCC [A12U G27C G35C A41C], the self-cleavage is 0.02.

As for GGCAGAGCUCAAAACAGCGUGGCAAACUGGCUGUGGAUAGACUGCC [C13A G27C C37A], the self-cleavage amounted to 0.02.

As for CGCAGAGCUUAACACAGCGUGACAAAGUGGCUGUGGCUAGACUGCC [G1C C10U G22A], the self-cleavage worked out at 0.07.

On to GGGAGAGCUCAACACACCGUGGCAAAGUGGCUGUGGCUAGACUCCC [C3G G17C G44C], for which the self-cleavage was found to be 0.54.

As for GGCAGAGCGCAACACAGCGUGGCAAAGUGGCUUUGUCUAGACUGCC [U9G G33U G36U], the self-cleavage worked out at 0.03.

As to GGCAGAGCUCAAGACAGCGUGGCAAAGUAGCUGUGACGAGACUGCC [C13G G29A G36A U38G], the self-cleavage was found to be 0.02.

In the case of GGGAGAGCUCAACACAGCGUGGCAAAAAGGCCGUGGCUAGACUGCC [C3G G27A U28A U32C], the self-cleavage is 0.06.

As to GGCAGAGCUCAGCACAGCGUGGCAAAGAGGCUUUAGCUAGAGUGCC [A12G U28A G33U G35A C42G], the self-cleavage amounted to 0.04.

As to GGCAGGGCUCAACGCAUCGUCGCAAAGUGUCUGUGGCUAGAGUACC [A6G A14G G17U G21C G30U C42G G44A], the self-cleavage was found to be 0.01.

Turning to GGCAGACCUCAAGACCGCGUGGGAAAGUGGCUGUGGUUAGACUGCU [G7C C13G A16C C23G C37U C46U], the self-cleavage stood at 0.01.

For GGCAGAGCUCAACUCCGCUUGGCGAAGUGGCUGUGUCUAGACUGCC [A14U A16C G19U A24G G36U], the self-cleavage is 0.01.

As to GGCAGAGCUCAACACAGCGUGGCAAAGUGGCUGUGUCUAGAUUUCC [G36U C42U G44U], the self-cleavage was 0.1.

With GGCAGAGAUCAACACAGCGAGGCAAAGUGGCUUAGGCAAGACUGCC [C8A U20A G33U U34A U38A], the self-cleavage is 0.05.

Consider GGCAGAGCUCAACAUAGCGUAGCAAAGUGGCUGAGGCUAGAUUGCC [C15U G21A U34A C42U], for which the self-cleavage is 0.07.

For GGGAGAGCUCAACACAGCGUGGCAAAGUGGCUGUAGCUUGACUGCC [C3G G35A A39U], the self-cleavage amounted to 0.04.

Regarding GGUAGAGCUCAACACCGCGUGGCAACGUGGCUUUGGCUAGACUGGC [C3U A16C A26C G33U C45G], the self-cleavage worked out at 0.02.

For GGCAGAGCUCAAGACAGCGUGGCACAGUUGCUGUGACUAGACUGCC [C13G A25C G29U G36A], the self-cleavage worked out at 0.

For the variant GGCAGCGCUCAACAUAGCGUGGCAAAGUGGUUGUGGCUAGCCUGUC [A6C C15U C31U A41C C45U], the self-cleavage was 0.06.

In the case of GGCAGAGCUUAACACAGCGUGGCCAAGUGGCUCUGGCUAGACUGCC [C10U A24C G33C], the self-cleavage worked out at 0.05.

AGCAGAGCUAAACAGAGCGUGGCAAAGUGGCAGUGGCUAGACUGCC [G1A C10A C15G U32A]: the self-cleavage amounted to 0.03.

For GGCAGAGCUCAACACAUCGUGGCCAAGUGGCCGUGGCUAGACUGCC [G17U A24C U32C], the self-cleavage worked out at 0.1.

Regarding GGCAGAGAUCAAGACAGCGUGGCAAAGUGGCUGUGGCUAGGCUGCC [C8A C13G A41G], the self-cleavage came out at 1.39.

GGGAGAGCUCAACACAGCGUGGCAAAGUGCCUCUGGCUAGACUGCC [C3G G30C G33C]: the self-cleavage worked out at 0.08.

GGCUGAGCUUAGCACAGCGUGGCAUAGUGGCUGUGGCUAGACUGCC [A4U C10U A12G A25U]: the self-cleavage came out at 0.01.

Consider GGCAGAGCUAACCACCGCGUGGCAAAGUGGCUGUGGCUAGACUGCC [C10A A12C A16C], for which the self-cleavage worked out at 0.

As for GGCAGAUCUCAACAAAGAGUGGCAAAGUGGCUGAGGCUAGACUGCC [G7U C15A C18A U34A], the self-cleavage turned out to be 0.05.

With GGCAGAGCUCAACACAGCGUGGUAAAGUAGAUGUGGCUAGACUCCC [C23U G29A C31A G44C], the self-cleavage was 0.17.

Regarding GGCCGAGCUCAACACAGCGUGGCAAAGAGGCUGCGGCUACACUGCC [A4C U28A U34C G40C], the self-cleavage was found to be 0.08.

As to GGCAGAGCUCAACACACAGUGGCAAAGUGGCUGUGGCUAGUAUGCC [G17C C18A A41U C42A], the self-cleavage is 0.05.

Consider GGCAGAGCUCAACAAAGCGUGGCAAAGUGGUUGUGGCUAUACUGCC [C15A C31U G40U], for which the self-cleavage came out at 0.04.

For GGUAGAGCUCAACACAUGGUGGCAAAGUGGCCGUGGCUAGACUGCC [C3U G17U C18G U32C], the self-cleavage turned out to be 0.09.

Regarding GGCAGAGCUCAACACAGCGUGGCAGAGUGGUUGUGGCUGAACCGCC [A25G C31U A39G G40A U43C], the self-cleavage stood at 0.

Consider GGCAGAGGUCAACACAGCGUGGCAAAGUGGCUCAGGCUCGACUGCC [C8G G33C U34A A39C], for which the self-cleavage turned out to be 0.03.

Take AGCAGAGCUCGACACAGCGUGGCAAAGUGGAUGUGGAUACAAUGCC [G1A A11G C31A C37A G40C C42A]: the self-cleavage came out at 0.

Regarding GGCACAGAUCAUCAGAGCGUGGCAAAGUGGAUGUGGCUAGACUGCC [G5C C8A A12U C15G C31A], the self-cleavage was found to be 0.19.

In the case of GCCAGAGCUCAUCACAGCGUGGCAAAAUGGAUGUGGCUAAACUGCC [G2C A12U G27A C31A G40A], the self-cleavage was determined as 0.04.

Take GGCAGAGCUCAAGACAGCGUAGCAAAGUGGCUGUGACUAGACUGCA [C13G G21A G36A C46A]: the self-cleavage turned out to be 0.04.

With GGCAGUGCUCAACACAGCUUGGAAAAGUGGCUGUGGCUAGACUGCC [A6U G19U C23A], the self-cleavage amounted to 0.5.
